Measurements: PubChem BioAssay AID488969 (Vanderbilt High Throughput Screening Facility, 2010)
The full ranking holds about 110,000 compounds; the median of “z-score” is about -0.1, and the highest 2% start at about 2. The list shows a part of the results.

Molecular target: Metabotropic glutamate receptor 8 (Rattus norvegicus) (UniProt P70579)
Assay: rat mGluR8 modulators via GIRK flux, primary screen, cell-based, thallium flux, HTS (AID 488969)
Conditions: HEK293 rat mGluR8, GIRK (G protein-gated inwardly rectifying potassium channel) thallium flux, FluoZin2; at 10 µM; stronger effect = higher value; submaximal glutamate (EC20) added with thallium

Chain of UniProt P70579 (P70579 whole entry, looked up): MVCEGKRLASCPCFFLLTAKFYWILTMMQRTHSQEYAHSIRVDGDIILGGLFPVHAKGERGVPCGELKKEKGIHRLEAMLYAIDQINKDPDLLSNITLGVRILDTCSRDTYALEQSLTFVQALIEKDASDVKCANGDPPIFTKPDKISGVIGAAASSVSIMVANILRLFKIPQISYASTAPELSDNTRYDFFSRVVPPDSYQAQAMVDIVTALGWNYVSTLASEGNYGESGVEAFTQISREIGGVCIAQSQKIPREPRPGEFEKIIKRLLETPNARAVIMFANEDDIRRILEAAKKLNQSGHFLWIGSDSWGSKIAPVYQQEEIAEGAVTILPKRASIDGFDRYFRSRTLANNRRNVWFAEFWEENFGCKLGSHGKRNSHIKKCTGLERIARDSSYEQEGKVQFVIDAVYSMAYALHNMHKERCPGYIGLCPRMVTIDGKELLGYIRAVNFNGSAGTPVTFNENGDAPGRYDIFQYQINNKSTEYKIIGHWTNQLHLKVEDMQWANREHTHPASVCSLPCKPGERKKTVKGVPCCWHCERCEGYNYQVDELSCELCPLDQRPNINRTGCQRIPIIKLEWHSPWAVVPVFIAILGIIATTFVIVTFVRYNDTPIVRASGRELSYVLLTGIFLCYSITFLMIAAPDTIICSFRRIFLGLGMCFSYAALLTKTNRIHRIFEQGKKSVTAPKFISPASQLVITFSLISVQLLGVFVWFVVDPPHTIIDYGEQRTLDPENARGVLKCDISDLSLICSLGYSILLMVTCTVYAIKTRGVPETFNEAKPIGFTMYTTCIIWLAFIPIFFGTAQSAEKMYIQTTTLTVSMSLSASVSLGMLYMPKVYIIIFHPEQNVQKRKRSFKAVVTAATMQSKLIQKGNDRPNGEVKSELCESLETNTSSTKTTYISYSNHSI

SMILES	z-score
CC(=O)Nc1cc(C(C)C)c(O)c(C(C)C)c1	-0.322
COC(=O)c1c(NC(=O)COc2ncnc3ccccc23)sc(C)c1C	-0.279
O=C(CN(Cc1ccc2c(c1)OCO2)C(=O)CNS(=O)(=O)c1ccccc1)NCC1CCCO1 (stereo not given)	0.846
O=C1C2CCCN2C(c2ccc(F)cc2)N1c1cccc(Cl)c1 (stereo not given)	-0.426
O=C(Nc1ccc2c(c1)OCO2)c1ccc(N2CCCC2)c([N+](=O)[O-])c1	-0.563
Cc1ccc(NC(=O)CS(=O)Cc2nc(-c3ccc(C)cc3)oc2C)cc1 (stereo not given)	-0.188
N/C(=N\OC(=O)c1ccccc1[N+](=O)[O-])c1cccnc1	0.0652
COc1ccc(OC)c(C2C(C(=O)Nc3ccccc3OC)=C(C)Nc3nc(CCCO)nn32)c1 (stereo not given)	-0.332
Cc1sc(NC(=O)C2CCCCC2C(=O)O)c(C(N)=O)c1-c1ccc(C(C)(C)C)cc1 (stereo not given)	-0.35
CCCOC(=O)Nc1ccc(N2CCCCC2)cc1	-0.659
O=C(COc1ccccc1)Nc1ccc([N+](=O)[O-])cc1	0.423
O=C(CCc1nc2cccnc2n1Cc1ccccc1)N1CCOCC1	0.0984
COc1cc([N+](=O)[O-])cc(CN2CCCCC2)c1O	0.162
CC(CCc1ccccc1)NC(=O)C(=O)NCCO (stereo not given)	-0.208
CCCCOc1ccc(-c2nnn(CC(=O)c3c[nH]c4ccccc34)n2)cc1	0.187
COc1ccc(CCNC(=O)NC2CCCCC2)cc1OC	-0.0796
COc1cccc(-c2nc(-c3ccc4c(c3)-c3ccccc3S4(=O)=O)c(-c3ccccc3)[nH]2)c1OC	0.192
O=C(N/N=C/c1ccc(OCCCF)cc1)c1cc(OCC(F)(F)F)ccc1OCC(F)(F)F	-0.181
CCOC(=O)c1c(C)[nH]c(C)c1C(=O)COC(=O)[C@@H]1CCCN1S(=O)(=O)c1ccc(Cl)cc1	-0.306
CCOC(=O)N1CCN(C(=O)CCS(=O)(=O)c2ccc(Br)s2)CC1	0.042
CCN(CC)C(=O)CN1CCC(n2c(C)nc3cc(C(F)(F)F)ccc32)CC1	-0.362
CC(=O)Nc1ccc(-c2csc(NC(=O)CCCc3cccs3)n2)cc1	-0.117
S=C(NCC1CCCO1)Nc1ccc(Cl)cc1 (stereo not given)	0.0149
COc1ccc(NC(=O)C(CCS(C)(=O)=O)N2C(=O)c3ccccc3C2=O)cc1 (stereo not given)	-0.208
CN1C(=O)[C@@H]2[C@@H]3C[C@@H]([C@H]4ON=C(c5ccc(Cl)cc5)[C@@H]34)[C@@H]2C1=O	0.518
COc1cccc(C2OC(=O)c3ccccc3N2C(C)=O)c1OC(C)=O (stereo not given)	0.116
CC1CC(C)CN(C(=O)CSc2nnc(-c3ccc(Cl)cc3)o2)C1 (stereo not given)	-0.176
Cc1cccc(NC2=NC(=S)N(c3ccc(C(=O)O)cc3)C23CCCCC3)c1	-0.194

SMILES	z-score
CCC(C)C1NC(=S)N(C2CCCCC2)C1=O (stereo not given)	0.382
COC(=O)c1cc2ccsc2n1CC(=O)Nc1cc(Cl)ccc1OC	0.428
CN(CC(=O)Nc1sccc1C#N)C1CCCCC1	0.0221
CC1CCCN(C(=O)C2CCN(S(=O)(=O)c3cccc4cccnc34)CC2)C1 (stereo not given)	-0.63
CCOC(=O)c1c(C)nc2sc3c(=O)n(-c4ccc(C(C)=O)cc4)nnc3c2c1-c1ccc(Cl)cc1	-0.128
CCCCOC(=O)/C=C/c1ccc(OC(=O)OC)c(OC(=O)OC)c1	-0.231
Cc1cc(C(=O)C(=O)N(C)C)c(C)n1-c1ccc([N+](=O)[O-])cc1	0.277
CCOC(=O)N1CCN(c2c(N3CCOCC3)c(=O)c2=O)CC1	-1.39
COCCCNC(=O)c1ccccc1SC	0.292
Cc1cc([N+](=O)[O-])nn1CC(=O)NCc1cccs1	-0.13
O=S(=O)(c1ccc(NC(=S)NCc2ccco2)cc1)N1CCCC1	-0.365
C/C(=N/N=C1/NC(=O)CC(C(=O)Nc2ccccc2)S1)c1cccs1 (stereo not given)	-0.222
COc1cc(/C=C(/C#N)c2nc3ccccc3c(=O)[nH]2)ccc1O	-0.29
CCOCCCn1c(=N)c(C(=O)Nc2cc(C)on2)cc2c(=O)n3ccccc3nc21	-0.167
COCCn1c(COc2cccc(OC)c2)nnc1SCC(=O)N1CCOCC1	1.06
C=CCOc1c(CNc2ccc(S(N)(=O)=O)cc2)cccc1OC	-0.459
O=C(CSc1nc2ccccc2o1)Nc1nc(-c2ccccc2)cs1	-0.203
COc1ccc(S(=O)(=O)Nc2ccccc2SC)cc1C	0.148
Cc1ccccc1CS(=O)(=O)CCC(=O)NCCCN1CCN(c2ccccc2F)CC1	-0.421
S=C(Nc1ccc(Cl)cc1)c1nc2ccccc2s1	0.236
COc1ccc(/C=C2/SC(=S)N(CCC(=O)O)C2=O)cc1	-0.0713
O=C(N/N=C/c1c(O)ccc2ccccc12)c1[nH]ncc1Br	0.0199
O=C1CC(c2ccco2)CC(O)=C1C=NCC1NCCc2ccccc21 (stereo not given)	-0.333
Cc1nn(Cc2c(F)c(F)c(F)c(F)c2F)c(C)c1NC(=O)c1nn(C)cc1[N+](=O)[O-]	-0.0787
Cc1ccc2nc(C)c(C(=O)N/N=C/c3ccco3)cc2c1	-0.189
O=C(CCC(=O)OCCCC(F)(F)C(F)(F)F)NC1CCCCC1	-0.0277
C=CCN(CC=C)CCOc1cccc2ccccc12	-0.0629
